Out of some 310,000 compounds screened, about 14,000 (4.5%) showed an effect of 50% or more. Effects have a minus sign here. The list shows a part of the results.
Target: human ether-à-go-go-related gene (hERG) potassium channel (human, UniProt Q12809)
Test: primary screen, population patch clamp on CHO cells stably expressing hERG
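Further: peak tail current of the secondary pulse compared with the same well before compound.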

Sequence of human ether-à-go-go-related gene (hERG) potassium channel (Q12809 whole entry, looked up): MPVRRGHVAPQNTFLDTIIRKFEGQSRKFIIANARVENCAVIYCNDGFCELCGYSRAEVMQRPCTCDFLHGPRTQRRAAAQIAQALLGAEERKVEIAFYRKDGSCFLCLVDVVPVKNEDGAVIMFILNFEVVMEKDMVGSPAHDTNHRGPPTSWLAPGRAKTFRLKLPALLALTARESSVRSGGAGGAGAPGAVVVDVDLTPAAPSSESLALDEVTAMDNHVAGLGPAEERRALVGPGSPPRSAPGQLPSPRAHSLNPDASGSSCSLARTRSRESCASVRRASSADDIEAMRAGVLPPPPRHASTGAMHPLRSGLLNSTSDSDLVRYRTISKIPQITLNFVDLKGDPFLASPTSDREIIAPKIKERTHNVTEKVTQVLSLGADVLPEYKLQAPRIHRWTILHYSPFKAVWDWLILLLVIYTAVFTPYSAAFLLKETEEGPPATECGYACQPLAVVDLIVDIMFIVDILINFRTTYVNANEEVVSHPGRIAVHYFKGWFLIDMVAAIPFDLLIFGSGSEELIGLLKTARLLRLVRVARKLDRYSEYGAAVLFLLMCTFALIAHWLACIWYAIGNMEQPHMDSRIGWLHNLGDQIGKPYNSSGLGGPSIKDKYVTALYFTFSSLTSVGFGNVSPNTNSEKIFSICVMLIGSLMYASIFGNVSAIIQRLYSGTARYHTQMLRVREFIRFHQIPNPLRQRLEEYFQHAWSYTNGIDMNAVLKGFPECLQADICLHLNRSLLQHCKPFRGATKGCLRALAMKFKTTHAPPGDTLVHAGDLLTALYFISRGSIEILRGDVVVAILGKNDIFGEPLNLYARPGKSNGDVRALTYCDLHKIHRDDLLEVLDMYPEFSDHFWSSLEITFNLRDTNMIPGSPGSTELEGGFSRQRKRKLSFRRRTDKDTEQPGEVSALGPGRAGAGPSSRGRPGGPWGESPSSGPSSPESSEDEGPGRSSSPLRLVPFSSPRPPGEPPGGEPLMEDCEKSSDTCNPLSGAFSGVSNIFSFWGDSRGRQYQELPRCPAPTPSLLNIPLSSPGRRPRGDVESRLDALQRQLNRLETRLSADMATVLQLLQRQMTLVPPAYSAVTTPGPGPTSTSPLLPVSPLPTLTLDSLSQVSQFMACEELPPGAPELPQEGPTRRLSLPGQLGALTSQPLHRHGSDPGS

| SMILES | hERG current change (%, negative = inhibition) at 10uM |
| --- | --- |
| Cc1cc2ncn(C(=O)N3CCCCC3)c2cc1C | 3.24% |
| Nc1ccc(N2CCOCC2)c(S(=O)(=O)Nc2cc(Cl)ccc2Cl)c1 | 5.66% |
| O=C(c1ccco1)N1CCN(c2ccc([N+](=O)[O-])cn2)CC1 | -57.7% |
| CN(CC1CCCN(CCc2ccc(Cl)cc2)C1)C(=O)c1ccco1 (stereo not drawn) | -25.5% |
| Fc1nc(N2CCCC2)c(F)c(Oc2ccccc2Oc2c(F)c(F)nc(N3CCCC3)c2F)c1F | 1.52% |
| Fc1ccc(-c2cc(C(F)(F)F)nc(NCc3cccs3)n2)cc1 | 14.4% |
| COc1ccc(/C=C/C(=O)N(C)c2ccccc2C(=O)O)cc1 | -4.18% |
| Cc1ccc(NC(=O)NCCN2C(=O)C3C4C=CC(C4)C3C2=O)cc1 (stereo not drawn) | -5.14% |
| COc1ccc(CN(C)C(=O)CCN=C2NS(=O)(=O)c3ccccc32)c(OC)c1 | -13.2% |
| O=C(NCCN1CCN(c2ccccc2)CC1)C1(S(=O)(=O)c2ccc(Cl)cc2)CC1 | -50.2% |
| CCOC(=O)c1c(NS(=O)(=O)Cc2ccccc2)sc2c1CCCC2 | 12.9% |
| COc1ccc(OC)c2[nH]c(=O)c(CCNC(=O)c3ccc(S(=O)(=O)N4CCCCC4)cc3)cc12 | -1.24% |
| CCS(=O)(=O)Nc1cccc(C2=NN(S(=O)(=O)CC)C(c3ccccc3)C2)c1 (stereo not drawn) | 1.69% |
| COc1cc(NC(=O)CSc2nnc(C)s2)cc(OC)c1OC | -0.59% |
| O=S1(=O)CCO[C@H]2Cc3ccccc3[C@H]2N1Cc1cccc(Cl)c1 | -28.4% |
| Cc1ccc(OCC(=O)N2CCN(C(=O)c3ccc([N+](=O)[O-])cc3)CC2)cc1 | -83.4% |
| Cc1ccc(SCc2cc(=O)[nH]c(N3CCN(C)CC3)n2)cc1 | -14.1% |
| Cc1cccc(OCCOc2ccccc2C=C(C#N)C#N)c1 | 7.63% |
| CSc1ncccc1-c1nc2ccccc2[nH]1 | -2.53% |
| CC(=O)c1ccc(S(=O)(=O)N(C)CC(=O)NCc2ccco2)cc1 | -5.97% |
| O=C(NC1CCCCNC1=O)c1ccccc1 (stereo not drawn) | 11.5% |
| COc1ccccc1-c1nc2ccccc2c(=O)n1O | 17.1% |
| Cc1cc(C)c(C#N)c(SCC(=O)Nc2ccc3c(c2)OCO3)n1 | 14.4% |
| COc1cccc(NC(=O)c2sc3nc4n(c(=O)c3c2C)CCC4)c1 | -16.3% |
